Reference: publication PMC3199943, “Screening the MayBridge Rule of 3 Fragment Library for Compounds That Interact with the Trypanosoma brucei myo-Inositol-3-Phosphate Synthase and/or Show Trypanocidal Activity” (Molecular Biology International, 2011)
Read-outs that look alike come from different tables or passages of the source.

Test system: cultured bloodstream T. brucei (strain 427)
[1] = Supplementary Table 1, compound 0.5 mM, percentage of controls in the absence of compound, mean ± SD (n=3) or SE (n=2)

Compound | T. brucei Alamar Blue [1] | T. brucei Alamar Blue
CC1(C)Cc2cccc(CO)c2O1 [compound 434, (2,2‐dimethyl‐2,3‐dihydro‐1‐benzofuran‐7‐yl)methanol] | 30 ± 6.2 percentage of controls | 
Cn1c(C(=O)O)cc2sccc21 [compound 464, 4‐methyl‐4H‐thieno[3,2‐b]pyrrole‐5‐carboxylic acid] | 82 ± 5.9 percentage of controls | 
CN(N)c1cc(C(F)(F)F)ccn1 [compound 554, 2‐(1‐methylhydrazino)‐4‐(trifluoromethyl)pyridine] | 96.3 ± 4.3 percentage of controls | 
CC1(C)Cc2cccc(C(=O)O)c2O1 [compound 564, 2,2‐dimethyl‐2,3‐dihydro‐1‐benzofuran‐7‐carboxylic acid] | 108.5 ± 16.1 percentage of controls | 
COc1c(C(=O)O)csc1Cl [compound 575, 5‐chloro‐4‐methoxythiophene‐3‐carboxylic acid] | 84.1 ± 4.5 percentage of controls | 
CC12CC(=O)CC1(C)CC(=O)C2 (stereo not drawn) [compound 324, 3a,6a‐dimethylperhydropentalene‐2,5‐dione] | 88.2 ± 0.7 percentage of controls | 
Cc1cc(C(=O)O)c2cc(F)ccc2n1 [compound 660, 6‐fluoro‐2‐methyl‐4‐quinolinecarboxylic acid] | 115.1 ± 0.7 percentage of controls | 
CSc1ccc(C(=O)O)s1 [compound 389, 5‐(methylthio)thiophene‐2‐carboxylic acid] | 85.6 ± 16.6 percentage of controls | 
Cc1oc(-c2ccccc2)nc1CCO [compound 643, 2‐(5‐methyl‐2‐phenyl‐1,3‐oxazol‐4‐yl)ethan‐1‐ol] | 28.1 ± 8.8 percentage of controls | 
Cn1nc(-c2ccccc2)cc1CO [compound 524, (1‐methyl‐3‐phenyl‐1H‐pyrazol‐5‐yl)methanol] | 85.9 ± 17.5 percentage of controls | 
CN1C2CCC1CC(=NO)C2.Cl [compound 552, 8‐methyl‐8‐azabicyclo[3.2.1]octan‐3‐one oxime hydrochloride] | 94.3 ± 14.4 percentage of controls | 
C#CCN1CCS(=O)(=O)CC1 [compound 379, 4‐(Prop‐2‐ynyl)thiomorpholine 1,1‐dioxide] | 102.9 ± 14.9 percentage of controls | 
OCc1ccc(Cn2ccnc2)cc1 [compound 528, [4‐(1H‐imidazol‐1‐ylmethyl)phenyl]methanol] | 78 ± 16 percentage of controls | 
CC1=NNC(=O)CC1 [compound 31, 6‐methyl‐2,3,4,5‐tetrahydropyridazin‐3‐one] | 110.1 ± 12.1 percentage of controls | 
COC(=O)c1scc(C)c1N [compound 354, methyl 3‐amino‐4‐methylthiophene‐2‐carboxylate] | 81.3 ± 9.1 percentage of controls | 
Cn1nc(-c2cccs2)cc1N [compound 450, 1‐methyl‐3‐(2‐thienyl)‐1H‐pyrazol‐5‐amine] | 55.3 ± 16.7 percentage of controls | 
CC(=O)Nc1ccc2c(c1)CCCC2=O [compound 644, N1‐(5‐oxo‐5,6,7,8‐tetrahydronaphthalen‐2‐yl)acetamide] | 104.2 ± 9.2 percentage of controls | 
COC(=O)c1scc(C)c1Cl [compound 551, methyl 3‐chloro‐4‐methylthiophene‐2‐carboxylate] | 108 ± 11.9 percentage of controls | 
COC(=O)c1cccc(CN)c1.Cl [compound 632, 3‐Aminomethylbenzoic acid methyl ester hydrochloride] | 57.9 ± 14.5 percentage of controls | 
CC(=O)c1sc(C)nc1C [compound 226, 1‐(2,4‐dimethyl‐1,3‐thiazol‐5‐yl)ethan‐1‐one] | 96.5 ± 10.9 percentage of controls | 
COC(=O)c1cc(C)[nH]c1C [compound 214, methyl 2,5‐dimethyl‐1H‐pyrrole‐3‐carboxylate] | 35.1 ± 4.4 percentage of controls | 
OCc1ccc(Cn2cccn2)cc1 [compound 529, [4‐(1H‐pyrazol‐1‐ylmethyl)phenyl]methanol] | 78.1 ± 10.3 percentage of controls | 
CC(=O)c1cc(F)cc(F)c1O [compound 360, 1‐(3,5‐difluoro‐2‐hydroxyphenyl)ethan‐1‐one] | 98.4 ± 8.8 percentage of controls | 
Cn1nc(C(C)(C)C)cc1N [compound 216, 3‐(tert‐butyl)‐1‐methyl‐1H‐pyrazol‐5‐amine] | 97.5 ± 10.1 percentage of controls | 
CC1(C)CC(=O)CC(C)(C)N1 [compound 228, 2,2,6,6‐tetramethyltetrahydro‐4(1H)‐pyridinone] | 98.9 ± 16.8 percentage of controls | 
CCOC(=O)c1[nH]c(C)c(CC)c1C [compound 594, ethyl 4‐ethyl‐3,5‐dimethyl‐1H‐pyrrole‐2‐carboxylate] | 32.2 ± 12.3 percentage of controls | 
CC1(C(=O)O)CC2C=CC1C2 (stereo not drawn) [compound 205, 2‐methylbicyclo[2.2.1]hept‐5‐ene‐2‐carboxylic acid] | 91.3 ± 1.8 percentage of controls | 

Compound | T. brucei Alamar Blue [1] | T. brucei Alamar Blue
CNCc1c(-c2ccccc2)noc1C [compound 637, N‐methyl‐N‐[(5‐methyl‐3‐phenylisoxazol‐4‐yl)methyl]amine] | 66.1 ± 6.7 percentage of controls | 
CN(C)CCOc1ccccc1CO [compound 593, {2‐[2‐(dimethylamino)ethoxy]phenyl}methanol] | 103.6 ± 18.7 percentage of controls | 
CCOC(=O)c1c(N)sc(C)c1C [compound 617, ethyl 2‐amino‐4,5‐dimethylthiophene‐3‐carboxylate] | 100.4 ± 13.8 percentage of controls | 
OCc1cccc2c1OCCO2 [compound 322, 2,3‐dihydro‐1,4‐benzodioxin‐5‐ylmethanol] | 90.8 ± 4.4 percentage of controls | 
N#Cc1scc2c1OCCO2 [compound 327, 2,3‐dihydrothieno[3,4‐b][1,4]dioxine‐5‐carbonitrile] | 89.7 ± 4.3 percentage of controls | 
CC(=O)Oc1ccc(C)c2c1CCC2 [compound 541, 7‐methyl‐2,3‐dihydro‐1H‐inden‐4‐yl acetate] | 45.5 ± 23.2 percentage of controls | 
CC12CCC(O)(CC1)CC2=O [compound 222, 4‐hydroxy‐1‐methylbicyclo[2.2.2]octan‐2‐one] | 106.5 ± 8.6 percentage of controls | 
CN(C)C1(CN)CCSC1 (stereo not drawn) [compound 268, 3‐(aminomethyl)‐N,N‐dimethyltetrahydro‐3‐thiophenamine] | 57.8 ± 19.5 percentage of controls | 
Cl.Cl.NCCc1c[nH]cn1 [compound 475, 2‐(1H‐imidazol‐4‐yl)ethylamine dihydrochloride] |  | 118.7 ± 4.4
OCc1scc2c1OCCO2 [compound 361, 2,3‐dihydrothieno[3,4‐b][1,4]dioxin‐5‐ylmethanol] | 86.3 ± 8.1 percentage of controls | 
Cl.NCc1ccc2c(c1)CCO2 [compound 496, 2,3‐dihydrobenzo[b]furan‐5‐ylmethylamine hydrochloride] | 75.4 ± 7.3 percentage of controls | 
NCc1csc(-c2cccs2)n1 [compound 599, [2‐(2‐thienyl)‐1,3‐thiazol‐4‐yl]methylamine] | 35.2 ± 15.5 percentage of controls | 
Cc1cc(C(N)=S)n(C)n1 [compound 227, 1,3‐dimethyl‐1H‐pyrazole‐5‐carbothioamide] | 98.4 ± 13.7 percentage of controls | 
Cc1nc2ccccn2c1CO [compound 287, (2‐methylimidazo[1,2‐a]pyridin‐3‐yl)methanol] | 84.7 ± 18.1 percentage of controls | 
Cc1nc(-c2ccccc2)c(CO)s1 [compound 666, (2‐methyl‐4‐phenyl‐1,3‐thiazol‐5‐yl)methanol] | 85.9 ± 17.4 percentage of controls | 
NCc1ccc2c(c1)OCCO2 [compound 306, 2,3‐dihydro‐1,4‐benzodioxin‐6‐ylmethylamine] | 29.2 ± 8 percentage of controls | 
CNCc1cc(-c2ccccc2)nn1C [compound 631, N‐methyl‐N‐[(1‐methyl‐3‐phenyl‐1H‐pyrazol‐5‐yl)methyl]amine] | 31 ± 6.5 percentage of controls | 
COC(=O)c1sccc1O [compound 247, methyl 3‐hydroxythiophene‐2‐carboxylate] | 88.6 ± 3.7 percentage of controls | 
Cn1nc(O)cc1C(F)(F)F [compound 316, 1‐methyl‐5‐(trifluoromethyl)‐1H‐pyrazol‐3‐ol] | 91.7 ± 8.2 percentage of controls | 
OCc1ccc2c(c1)OCCO2 [compound 320, 2,3‐dihydro‐1,4‐benzodioxin‐6‐ylmethanol] | 83.1 ± 11.5 percentage of controls | 
Cc1cc(N)ccc1C(C)C.Cl [compound 497, 4‐isopropyl‐3‐methylaniline hydrochloride] | 30.1 ± 9 percentage of controls | 
CN1N=C(C(F)(F)F)CC1=O [compound 315, 1‐methyl‐3‐(trifluoromethyl)‐4,5‐dihydro‐1H‐pyrazol‐5‐one] | 103.3 ± 15.9 percentage of controls | 
CC(=O)c1ccc(-n2ccnc2)cc1 [compound 503, 1‐[4‐(1H‐imidazol‐1‐yl)phenyl]‐1‐ethanone] | 60.7 ± 7.5 percentage of controls | 
OCc1cc(F)cc2c1OCOC2 [compound 476, (6‐fluoro‐4H‐1,3‐benzodioxin‐8‐yl)methanol] | 33.3 ± 4.3 percentage of controls | 
CNCc1ccc2c(c1)OCO2 [compound 305, N‐(1,3‐benzodioxol‐5‐ylmethyl)‐N‐methylamine] | 49.3 ± 11.2 percentage of controls | 
O=C1COc2cc(O)ccc21 [compound 182, 6‐hydroxy‐2,3‐dihydrobenzo[b]furan‐3‐one] | 56.2 ± 7.7 percentage of controls | 
OCc1ccc(CN2CCCC2)cc1 [compound 559, [4‐(pyrrolidin‐1‐ylmethyl)phenyl]methanol] | 82.9 ± 2.2 percentage of controls | 
